Data: PubChem BioAssay AID1159614 (National Center for Advancing Translational Sciences (NCATS), 2016)
Hit rate of the full screen: of about 45,000 compounds, about 65 (0.1%) were called active. Calls come from the whole dose curve; as a rule, active = well fitted activation curve with a large enough effect; inconclusive = small, poorly fitted or top-dose-only effect; inactive = no such curve, though single readings can be large or run the other way. This is one part of the list.

What follows are compounds tested against Galactocerebrosidase (Homo sapiens) (UniProt P54803) (assay: A Novel Cell-Based Assay to Identify Small Molecules for B -Galactocerebrosidase). Conditions: 145M-Twi-hGALC-G270D cells (Twitcher mouse brain line with human GALC G270D), HMU-beta-Gal fluorescence, 48 h; series mostly up to 57.5 µM; activation: at the top concentration.
Sequence of UniProt P54803 (P54803 whole entry, looked up): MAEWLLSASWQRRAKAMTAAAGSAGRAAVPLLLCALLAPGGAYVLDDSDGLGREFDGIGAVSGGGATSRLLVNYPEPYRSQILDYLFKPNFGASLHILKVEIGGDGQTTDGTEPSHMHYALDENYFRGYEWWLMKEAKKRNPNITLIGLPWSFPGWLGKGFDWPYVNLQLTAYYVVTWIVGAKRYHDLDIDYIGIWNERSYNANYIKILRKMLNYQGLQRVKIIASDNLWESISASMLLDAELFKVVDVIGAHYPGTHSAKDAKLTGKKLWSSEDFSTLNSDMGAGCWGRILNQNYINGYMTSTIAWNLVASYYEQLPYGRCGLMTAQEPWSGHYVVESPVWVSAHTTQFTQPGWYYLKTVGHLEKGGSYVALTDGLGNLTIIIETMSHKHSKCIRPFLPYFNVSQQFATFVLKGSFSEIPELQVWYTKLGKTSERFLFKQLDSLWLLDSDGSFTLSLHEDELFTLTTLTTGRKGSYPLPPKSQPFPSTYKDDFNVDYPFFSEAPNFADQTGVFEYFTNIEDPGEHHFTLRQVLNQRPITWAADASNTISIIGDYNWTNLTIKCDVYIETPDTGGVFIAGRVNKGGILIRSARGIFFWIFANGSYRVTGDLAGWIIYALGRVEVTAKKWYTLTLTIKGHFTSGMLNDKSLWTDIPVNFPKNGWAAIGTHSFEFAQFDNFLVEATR
Outline: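 Fluorescence readout: HMU-β-gal cleavage by mutant GALC (0.1 mM final, citrate/phosphate pH 5.2 with 1 mg/mL taurocholate), stopped with carbonate/bicarbonate plus Triton X-100. Cells: murine Twitcher 145M-Twi expressing human G270D GALC; qHTS for activators.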
Note: 0% is about no effect; nearly all actives have a fitted effect of over 65% in size.

activation, inactive:
CCOc1ccc(NC(=O)c2ccc3[nH]c(C)cc(=O)c3c2)cc1 -9.02%
Cc1ccc(C)c(N2CCN(C(=O)c3ccc(-c4nc(COc5ccccc5)c(C)o4)cc3)CC2)c1 -9.21%
COc1cccc(CNS(=O)(=O)c2ccc3[nH]c4c(c3c2)CCCCC4)c1 -23%
COc1ccc2c(CNCCc3ccccc3C)c(C(=O)O)n(Cc3ccccc3C)c2c1 -24.5%
CC1CCN(S(=O)(=O)c2ccc3c(c2)N(CC(=O)NCCN(C)C)C(=O)CO3)CC1 -2.8%
COc1ccc2c(c1)c1c(c(=O)n(-c3ccc(C)cc3)c(=O)n1CC(=O)c1ccc(Cl)cc1)n2C -16.7%
COc1ccc(NC(=O)Cn2cc(S(=O)(=O)N3CCC(C)CC3)c3ccccc3c2=O)cc1Cl -15.6%
Cc1ccc(C)c(CNS(=O)(=O)c2ccc3c(c2)C(C)(C)C(=O)N3C)c1 -6.62%
Cc1ccccc1C(=O)Nc1cccc(OCc2cc(=O)n3c4c(sc3n2)CCCC4)c1 8.28%
CCOC(=O)c1c(S(=O)(=O)N2CCCC(C(=O)NCc3ccc(F)cc3)C2)c(C)n(CC)c1C (centres undefined) -15.5%
COc1ccc(CN(Cc2ccco2)C(=O)COc2ccc(Cl)cc2C)cc1 -10.9%
Cc1ccc2c(c1)cc1c(=O)n(CC(=O)N(C)c3ccccc3)nc(C)n12 2.91%
O=C(CCCCn1c(=O)[nH]c2ccsc2c1=O)N1CCN(c2cccc(C(F)(F)F)c2)CC1 -7.87%
CC(=O)N1CCc2c(sc3c2c(=O)n(-c2cccc(Cl)c2C)c(=O)n3Cc2ccccc2C)C1 -24.5%
COc1cccc(-c2nnc(SCC(=O)N3CCCCC3)o2)c1 -14.7%
CCOC(=O)c1cccc(NC(=O)c2ccc3c(c2)nnn3CC)c1 -9.83%
Cc1ccc(C)c(Cn2c(=O)n(CC3CCC(C(=O)N4CCOCC4)CC3)c(=O)c3sccc32)c1 (centres undefined) -13.7%
COc1ccc(CNC(=O)C2CCCN(S(=O)(=O)N(C)c3ccc(F)cc3)C2)cc1OC (centres undefined) -6.31%
O=C(OCc1cc(=O)n2nc(-c3cccs3)sc2n1)c1cccc(Cl)c1 -17.7%
CCOC(=O)c1ccccc1NC(=O)Cn1nnc2sc3c(c2c1=O)CCCC3 -14%
Cc1ccc(C(C(=O)NC2CCCCC2)N(C)Cc2ccccc2)cc1 (centres undefined) 0.619%
Cc1ccc(NC(=O)Cn2c(=O)c(C(F)(F)F)nc3ccccc32)cc1C -7.85%
Cn1cc(-c2cc3n(n2)CCC(=O)N3CCCC(=O)NCc2ccc(F)cc2)c2ccccc21 -9.29%
Cc1cccc(C)c1NC(=O)c1nc(S(C)(=O)=O)ncc1N(Cc1ccc(C(C)(C)C)cc1)Cc1ccco1 -8.78%
CCOC(=O)c1ccccc1Nc1nc2ccc(C)cc2n2nnnc12 -9.48%
CCOc1ccc(NC(=O)c2oc3ccccc3c2NC(=O)C2CCCCC2)cc1 -8.69%
Cc1oc2c(c1C(=O)Nc1ccc(F)c(F)c1)C1=NCCN1C=N2 -16.9%
CCc1cccc(CC)c1NC(=O)CCS(=O)(=O)c1ccc(Br)s1 -5.71%
Cc1ccc(NC(=O)CSc2nc3nc(C)c(Cc4ccccc4)c(C)n3n2)cc1 -7.99%
CC(C)CNC(=O)N1CCN(S(=O)(=O)c2ccc3c(ccn3C)c2)CC1 -19.8%
COc1ccc(Cn2ccnc2SCC(=O)Nc2ccc3c(c2)OCO3)cc1 -9.57%
COc1ccc(-c2cc(C(F)(F)F)n3nc(C(=O)Nc4cc(C(F)(F)F)ccc4Cl)cc3n2)cc1OC -12.6%
CCCCCCCCCCCCCCCC(=O)O -10.2%
Cc1ccc2oc3c(c(=O)c2c1)C(c1ccccc1F)N(c1ccccn1)C3=O (centres undefined) -18.2%
COc1ccc(NC(=O)c2sc3nc4n(c(=O)c3c2C)CCC4)c(OC)c1 -19.4%
COc1ccccc1Cc1nc2ccccc2nc1SCC(=O)N1CCCCC1 8.03%
CCCCOc1ccccc1NC(=O)CC1Sc2ccccc2NC1=O (centres undefined) -6.36%
C=C1c2cccc(O)c2C(O)=C2C(=O)[C@]3(O)C(O)=C(C(N)=O)C(=O)[C@@H](N(C)C)[C@@H]3[C@@H](O)[C@H]12 -17.5%
Cc1noc(/C=C/c2ccccc2F)c1S(=O)(=O)N1CCC(C(=O)NCc2ccco2)CC1 -19.2%
COc1ccc(CCNC(=O)CCc2c(C)nc3cc(-c4ccc(Cl)cc4)nn3c2C)c(OC)c1 -10.7%
CCOC(=O)N1CCN(c2ncc3c(n2)CC(c2ccc(OC)c(OC)c2)CC3=O)CC1 (centres undefined) -42.1%
Cc1cc(C)cc(N2C(=O)CSC23C(=O)N(CC(=O)NC2CCCCC2)c2ccccc23)c1 (centres undefined) -22.1%
COc1ccc(C(=O)Nc2cccc(OCc3cc(=O)n4c5c(sc4n3)CCCC5)c2)cc1OC -4.98%
CCOC(=O)c1ccccc1NC(=O)N1CCCn2nc(C)cc21 -10.9%
Cc1ccccc1C(=O)Nc1nnc(S(=O)(=O)N2CCc3ccccc32)s1 -11.9%
CC(=O)N1CCCc2cc(S(=O)(=O)N3CCC(C(=O)N(C)C4CCCCC4)CC3)ccc21 -21.8%
CCc1ccc(NC(=O)Cn2c(=O)n(Cc3ccc(C)cc3)c(=O)c3cccnc32)cc1 4.36%
CNC(=O)C1CCN(C(=O)N2CC(C)Oc3ccc(Cl)cc32)CC1 (centres undefined) -9.37%
COc1ccc(OC)c(CCNC(=O)c2cnn(-c3ccccc3)c2-n2cccc2)c1 -19.9%
O=C(CCS(=O)(=O)c1cc(Br)cc2c1N(C(=O)C1CC1)CC2)N1CCN(c2ccccc2)CC1 -14.1%
Cc1ccccc1Cn1nnc2c(=O)[nH]c(C3CCCN(C(=O)c4ccc(C(C)(C)C)cc4)C3)nc21 (centres undefined) -15.2%
O=C(c1ccc2c(c1)N(Cc1cccc(Cl)c1)C(=O)c1ccccc1S2(=O)=O)N1CCCC1 -21.3%
CCOc1ccc(C2CC(=O)c3c([nH]c(C(=O)OCCOc4ccccc4)c3C)C2)cc1 (centres undefined) -31.9%
CCOC(=O)C1CCCN(C(=O)c2ccccc2NC(=O)c2nsc3ccccc23)C1 (centres undefined) -36.6%
Cc1nnc2c3ccccc3nc(N3CCN(c4ccccc4)CC3)n12 -5.88%
CCOCCCNC(=O)C1CCCN(c2ncnc3onc(C)c23)C1 (centres undefined) -6.01%
O=C(CCc1ccccc1)N(Cc1cccnc1)c1nc2ccc(F)cc2s1 -8.03%
O=C(Cn1cc(SCc2ccc(F)cc2)c2ccccc21)N1CCCCCC1 -15.2%
N#Cc1c(-c2ccccc2)cc(-c2ccccc2)nc1SCC(O)CS(=O)(=O)Cc1ccccc1 (centres undefined) -19.7%
CCN(CC)C(=O)CSc1nc2c(c(=O)n(C)c(=O)n2C)n1Cc1ccccc1 -8.07%
CCOc1ccc(NC(=O)c2cnn(-c3ccccc3)c2-n2cccc2)cc1 -11.7%
CCCN(Cc1cccs1)C(=O)Nc1cc(C)cc(C)c1 -5.79%
Cc1nn(C)c2c1c(-c1ccccc1)cc(=O)n2Cc1ccc(F)cc1Cl -4.94%
CCN(CC)C(=O)Cn1c(=O)n(-c2ccc(Cl)cc2)c(=O)c2c3c(sc21)CCCCC3 0.388%
CCOc1ccc(CCNC(=O)CCn2c(=O)c3cccn3c3ccc(F)cc32)cc1OCC -10.3%
COc1ccc(-c2nc3ccccc3o2)cc1NC(=O)c1cccc2c(Cl)cccc12 -4.13%
COc1ccc(NC(=O)CC2C(=O)N(c3ccc(OC)cc3)C(=O)N2Cc2ccc(OC)c(OC)c2)cc1 (centres undefined) -20.2%
CCOc1ccc(N2CC(NC(=O)Cc3cccs3)CC2=O)cc1 (centres undefined) 4.03%
CN(Cc1ccccc1)c1ccc2cc(S(=O)(=O)N3CCCCC3)ccc2n1 -6.68%
Cc1ccc(C)c(CSc2cn(CC(=O)N3CCCC3)c3ccccc23)c1 -5.2%
COc1ccc2cc(-c3nc(-c4ccc(N(C)C)cc4)no3)c(=O)oc2c1 -11%
CCOc1ccc(NC(=O)CCc2c(C)nc3c4c(C)cc(C)nc4nn3c2C)cc1 -4.3%
Cc1c(C(=O)N(C)Cc2ccccc2)sc2nc(-c3ccc(F)cc3)cn12 -14.4%
CC(NCc1ccc2c(c1)n(C)c(=O)n2C)c1ccccc1 (centres undefined) -34.7%
COc1cc(NC(=O)CSc2cc(=O)n(C)c3ccccc23)cc(OC)c1OC -25.9%
COc1ccc(N2CCN(C(=O)c3ccc4c(c3)CCN4S(=O)(=O)c3ccccc3)CC2)cc1 -5.71%
CCC12CN3CC(CC)(CN(C1)C3c1c[nH]c3ccccc13)C2=O (centres undefined) -2.26%
Cc1noc2ncnc(NCCc3ccccc3)c12 -12.1%
COCCCNC(=O)C1CCN(Cc2cc3ccccc3n2Cc2cccc(Cl)c2)CC1 4.34%
Cc1ccc(-c2cn3c(n2)sc2cc(C(=O)NC4CCCCCC4)ccc23)cc1 -7.49%
Cc1cc(C)n2nc(CNC(=O)c3cccc(N(C)C)c3)nc2n1 0.975%
COc1ccc(Br)cc1CNC(=O)C1CCN(c2nnc(-n3cccc3CNc3ccc(C)cc3)s2)CC1 0.362%
CSc1nn(CC(=O)Nc2ccc(C)cc2C)c(N)c1S(=O)(=O)c1ccc(Cl)cc1 -9.35%
CCn1cc(C(=O)N(C)c2cc(C)ccc2C)c2cc(OC)c(OC)cc2c1=O -9.42%
O=S(=O)(Nc1nc2n(n1)C(c1ccc(F)cc1)C=C(c1ccc(Cl)cc1)N2)c1ccccc1 (centres undefined) -12.2%
COc1ccc(NS(=O)(=O)c2ccc3c(c2)CC(C)N3C(=O)C2CCC2)cc1OC (centres undefined) -15.9%
Cc1ccc(NS(=O)(=O)c2ccc3nc(-c4ccccc4)[nH]c3c2)cc1Cl 7.81%
CCOc1ccccc1NC(=O)C1CCCN(S(=O)(=O)c2cccs2)C1 (centres undefined) -13.3%
COc1cc2c(C(=O)N3CCN(c4ccc(F)cc4)CC3)cn(CC(C)C)c(=O)c2cc1OC -2.59%
